Test results: PubChem BioAssay AID1345083 (National Center for Advancing Translational Sciences (NCATS), 2018)
Out of some 94,000 compounds screened, about 6,200 (6.6%) were called active. Inconclusive means that the source gave no clear call. Such entries were picked first, then a sample of the others. The call rests on the fitted dose curve; in most records, active means well fitted inhibition curve with a large enough effect; inconclusive means small, poorly fitted or top-dose-only effect; inactive means flat fitted curve, though single readings scatter. Potencies of inconclusive entries are doubtful fits and often do not repeat.

Assay: Cytotoxic Profiling in HEK 293 Cell Line of Diverse Libraries Using Quantitative High-Throughput Screening; further: nearly all actives have a fitted effect of over 60% in size
Settings: HEK 293 viability, ATP luminescence (CellTiter-Glo), 48-72 h; series mostly up to 115 µM
Summary of the method: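 Cytotoxicity was scored by loss of ATP-coupled luminescence (CellTiter-Glo) in HEK 293 cells. Compound treatment ran 48 or 72 hr at 37 degree Celsius, 5% CO2, 95% humidity.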
Potency means the concentration at half of the fitted maximal effect; tags describe the fitted curve by direction and shape.

Row | Compound | Potency
1 | COc1ccccc1N1CCCc2ncc(C(=O)NCc3ccccc3)cc21 | inactive
2 | O=C(c1ccncc1)N1CCCN(c2ccc3nnc(-c4ccccc4)n3n2)CC1 | inactive
3 | C[S+](=O)([O-])Nc1cccc(-c2cc(-c3cccnc3)c3cncn3c2)c1 | inconclusive: 20 µM [inhibitor, partial curve, poor fit]
4 | COc1ccccc1-c1cccc(C(=O)N2CCC[C@H]2C(=O)NCc2ccc(C(F)(F)F)cc2)c1 | active: 79.4 µM
5 | O=C(NC1CCN(C(=O)c2ccc(-c3cccs3)cc2)CC1)c1ccccc1F | inconclusive: 56.2 µM [inhibitor, partial curve, poor fit]
6 | COc1cccc(N2CC(C(=O)NCc3ccc(C(F)(F)F)cc3)NC2=O)c1 (stereo not drawn) | inconclusive: 79.4 µM [inhibitor, partial curve, poor fit]
7 | Cc1noc(C)c1S(=O)(=O)N1CCC(OCc2noc(C3CCCO3)n2)CC1 (stereo not drawn) | inactive
8 | COCCN1Cc2ccc(NCc3ccccc3)nc2C(C)(C(=O)Nc2cccnc2)C1 (stereo not drawn) | inconclusive: 100 µM [inhibitor, partial curve]
9 | CC1CCN(C(=O)c2ccccc2OCC2CCCN(Cc3cccnc3)C2)CC1 (stereo not drawn) | inconclusive: 39.8 µM [inhibitor, full curve]
10 | c1ccc(-c2[nH]ncc2CN2CCCC(N3CCN(c4ccccc4)CC3)C2)cc1 (stereo not drawn) | inconclusive: 89.1 µM [inhibitor, single point]
11 | O=C(c1ccc(C(F)(F)F)cc1)N1CCN(c2ccc3nnc(-c4ccccc4)n3n2)CC1 | inactive
12 | Cc1cc(C(=O)N2CCCN(S(=O)(=O)c3ccccc3)CCC(=O)NCC2)nn1C | inactive
13 | COc1ccc(NC(=O)N2CCc3c(C(=O)NCCN4CCCCCC4)cccc32)cc1 | inconclusive: 89.1 µM [inhibitor, single point]
14 | O=C(c1cn2cc(-c3ccccc3)sc2n1)N1CCCCC1 | inconclusive: 100 µM [inhibitor, partial curve, poor fit]
15 | COc1cccc(CN2C[C@@H](F)[C@@H](OCc3nc4ncccc4[nH]3)C2)c1 | inconclusive: 89.1 µM [inhibitor, partial curve, poor fit]
16 | O=C(COc1ccc(F)cc1)N1CCCCCC1c1nnc(-c2ccccc2)o1 (stereo not drawn) | inconclusive: 89.1 µM [inhibitor, single point]
17 | CC1(C)[C@H]2CC[C@@H](CNC(=O)c3cccc(Cl)c3)[C@@H]1C2 | active: 79.4 µM
18 | Cc1ccc(C(=O)N2CCC(C(=O)N3CCC(c4nc5ncccc5[nH]4)CC3)CC2)cc1 | inactive
19 | CCCS(=O)(=O)N1CCc2nc(N3CCc4ccccc4C3)[nH]c(=O)c2CC1 | inconclusive: 20 µM [inhibitor, full curve, poor fit]
20 | COCC(=O)N1CC2(Cc3ccccc3N([S+](C)(=O)[O-])C2)C1 | inconclusive: 112 µM [inhibitor, single point]
21 | CN(Cc1cccc(C(F)(F)F)c1)C(=O)c1ccccc1 | inconclusive: 112 µM [inhibitor, single point]
22 | COc1ccc2c(c1)CN(CC=C(C)C)C(=O)CCN2CC(C)(C)O | inconclusive: 100 µM [inhibitor, single point]
23 | CC(=O)NCc1nnc2n1C(C(=O)Nc1ccc(C)cc1)CC2 (stereo not drawn) | inactive

Row | Compound | Potency
24 | CC(C)NC(=O)N1CCN(c2nccc(Nc3ccccc3Cl)n2)CC1 | inconclusive: 56.2 µM [inhibitor, partial curve, poor fit]
25 | COc1ccccc1CC(=O)Nc1cnc(-c2cccc(Cl)c2)nc1 | inconclusive: 79.4 µM [inhibitor, partial curve, poor fit]
26 | CCCN1C(=O)Cc2cc(C(=O)NCc3ccc(Cl)cc3)ccc21 | inconclusive: 56.2 µM [inhibitor, partial curve, poor fit]
27 | COc1ccc(C(=O)NC2CCCN(c3ccc4nnc(C5CC5)n4n3)C2)cc1 (stereo not drawn) | inactive
28 | COc1cc(NC(=O)CN2CCCc3nc(C4CC4)ncc3C2=O)cc(OC)c1 | inactive
29 | Cc1ccc(C)c(C(=O)N2C[C@@H](CO)[C@H](N(C)C)C2)c1 | inactive
30 | Cc1ccc(-c2cc(C(=O)NCc3cccc(Cl)c3)c3cnn(C)c3n2)c(C)c1 | active: 31.6 µM
31 | O=C1NC2(CCCN(C(=O)c3ccc(F)cc3)C2)Oc2ccccc21 (stereo not drawn) | inactive
32 | O=C(NCc1ccc(C(F)(F)F)cc1)C1CN(C2CCCCC2)C(=O)N1 (stereo not drawn) | inconclusive: 31.6 µM [inhibitor, partial curve, poor fit]
33 | O=C(C1CC1)N1CCCN(c2ccc3nnc(-c4ccccc4)n3n2)CC1 | inactive
34 | CCOc1ccc(CN2C[C@@H](CO)[C@H](c3ccncc3)C2)cc1 | inconclusive: 50.1 µM [inhibitor, partial curve, poor fit]
35 | COc1ccc(-c2cc(N3CCCC(NC(=O)c4cccc(Cl)c4)C3)n[nH]2)cc1 (stereo not drawn) | active: 44.7 µM
36 | O=C(NCc1ccc(F)cc1)NC1CCc2nn(CC3CC3)c(=O)n2CC1 (stereo not drawn) | inactive
37 | COc1ccc(OC)c(CNC(=O)c2cccc3c2CCN3C(=O)c2ccc(F)cc2)c1 | inconclusive: 44.7 µM [inhibitor, partial curve, poor fit]
38 | O=C(c1cccc(Cl)c1)N1CCCN(CCn2nc3n(c2=O)CCCC3)CC1 | inactive
39 | CCC1Oc2ccc(NC(=O)CC(C)(C)C)cc2CN(Cc2ccccc2F)C1=O (stereo not drawn) | inconclusive: 56.2 µM [inhibitor, partial curve, poor fit]
40 | O=C1NC(=NC2CCCC2)C2(CCN(Cc3ccccc3)CC2)N1c1cc(F)cc(F)c1 | inactive
41 | Cc1nonc1CN(C)C(=O)c1csc2nc(-c3cccc(C(F)(F)F)c3)cn12 | inconclusive: 50.1 µM [inhibitor, partial curve, poor fit]
42 | O=C(Nc1ccccc1F)N1CC(Oc2ccc(-c3noc(-c4ccccc4)n3)cc2)C1 | inconclusive: 3.55 µM [inhibitor, full curve, poor fit]
43 | COc1cccc(CNC(=O)c2ccc3nnc(-c4ccc([S+](C)(=O)[O-])cc4)n3c2)c1 | inactive
44 | CC(C)NC(=O)[C@@H]1C[C@H](N)CN1C(=O)c1cccc(S(C)(=O)=O)c1 | inactive
45 | COc1ccc(CC(=O)NC2CCN(Cc3ccc(-c4ccccc4OC)cc3)C2)cc1 (stereo not drawn) | active: 39.8 µM
46 | O=C(Cc1cccc(F)c1)N1CCC2(CC1)NC(=O)N(c1ccccc1Cl)N2 | inconclusive: 44.7 µM [inhibitor, partial curve, poor fit]

Row | Compound | Potency
47 | CNC(=O)c1cc(C2CC2)nc2onc(C3CCN(C(=O)c4ccccc4F)CC3)c12 | inconclusive: 89.1 µM [inhibitor, partial curve, poor fit]
48 | COc1ccc([C@H]2C[C@@H](O)[C@@H](O)[C@@H]2NS(=O)(=O)c2ccc(Cl)cc2)cc1 | inactive
49 | COc1ccccc1C(O)c1nc(Nc2ccncc2)n[nH]1 (stereo not drawn) | inactive
50 | CC(Oc1ccc2ccccc2c1)C(=O)N1CCCOCC1 (stereo not drawn) | inconclusive: 28.2 µM [inhibitor, full curve, poor fit]
51 | CCc1nc2c(c(-c3ccc(Cl)cc3)n1)CCN(C(=O)c1ccc3c(c1)OCO3)CC2 | inconclusive: 79.4 µM [inhibitor, partial curve, poor fit]
52 | CCc1cc(=O)n(CC(=O)N2CCN(c3ccc(F)cc3)CC2)c(N2CCOCC2)n1 | active: 25.1 µM
53 | CN(C)c1cccc(-c2n[nH]c3c2CC(=O)N(CC2CC2)C3)c1 | inconclusive: 44.7 µM [inhibitor, full curve]
54 | CC(=O)N1CCc2sc(C(=O)NCc3ccc(F)cc3Cl)cc2C1 | inconclusive: 79.4 µM [inhibitor, partial curve, poor fit]
55 | Cc1ccc(C(=O)N2CCN(CCn3nc4n(c3=O)CCCC4)CC2)cc1 | inactive
56 | O=C(COc1ccccc1)Nc1ccc([C@@H](O)[C@H]2COCC(=O)N2Cc2ccccc2F)cc1 | inconclusive: 79.4 µM [inhibitor, partial curve, poor fit]
57 | COc1cc(-c2nc(CN3CCCC(CN)C3)c(C)o2)cc2c1OCO2 (stereo not drawn) | active: 39.8 µM
58 | COc1cccc(N2CCN(C(=O)c3noc(-c4ccc(C)cc4)n3)CC2)c1 | inconclusive: 89.1 µM [inhibitor, single point]
59 | Cc1cccnc1CC(C)NC(=O)c1cc(Cn2cnc3ccccc32)[nH]n1 (stereo not drawn) | inconclusive: 70.8 µM [inhibitor, partial curve, poor fit]
60 | CCOc1ccccc1CN1CCC(CC2CC2)(NS(C)(=O)=O)CC1 | inconclusive: 50.1 µM [inhibitor, partial curve, poor fit]
61 | COCCc1noc(-c2ccccc2OC2CN(C(=O)c3ccncc3)C2)n1 | inactive
62 | O=C1CC2(CCN(Cc3ccc(C(F)(F)F)cc3)CC2)Oc2ccccc2N1c1ccccc1 | active: 20 µM
63 | O=C(NCCc1ccncc1)C1c2ccccc2C(=O)N(Cc2ccccc2)C12CCCC2 (stereo not drawn) | inconclusive: 100 µM [inhibitor, single point]
64 | O=C(O)c1cccc(-c2cc(C(F)(F)F)ccc2Cl)c1 | inactive
65 | COc1cc(OCc2ccccc2)ccc1CN1C[C@@H]2CCN[C@@H]2C1 | inconclusive: 56.2 µM [inhibitor, partial curve, poor fit]
66 | O[C@@H]1C[C@@H](c2nc(-c3ccccc3)no2)N(Cc2cc3ccccc3o2)C1 | inconclusive: 126 µM [inhibitor, single point]
67 | Cc1cccc(NC(=O)c2cc3c(N4CCSCC4)nc(C)cn3n2)c1 | active: 39.8 µM
68 | CCc1nc2c(c(-c3ccc(O)cc3)n1)CCN(Cc1ccc(C)cc1)CC2 | inconclusive: 35.5 µM [inhibitor, partial curve, poor fit]
